The test system of this assay is SARS CoV-2 S protein. The note with it: 20 hours post-infection; relative to untreated cells.

On to `CN(C)C(=O)COC(=O)Cc1ccc(OC(=O)c2ccc(NC(=N)N)cc2)cc1.CS(=O)(=O)O` [CM, camostat methylate], for which the “S protein cleavage (ratio of 180 kDa unprocessed S protein to cleaved S2 subunit)” value is “inhibit cleavage”.

The record behind these values is US20230158063A1, “AIRWAY […] THERAPY TO TREAT VIRAL R[…]” (THE TRUSTEES OF INDIANA UNIVERSITY, priority 2020, published 2023).
